In the supplement of paper PMC11417369:
± gives the standard deviation of the averaged measurements. Some of the results follow.

System: PfAP2-G AP2 domain (GST-tagged)
Assay: gcPBM binding intensity (ln(normalized median fluorescence intensity)); higher = stronger DNA binding
Method in brief: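 Binding intensity is defined as the maximum Masliner-normalised natural-log median intensity across replicate spots for either probe orientation. It was measured on an Agilent 4 × 180k array of primer-extended double-stranded 36-bp intergenic genomic probes and negative controls, to which GST-tagged P. falciparum DNA-binding domains made in E. coli were applied for 1 h in 1× PBS with 1% milk, 0.2 mg/ml BSA, 0.5% salmon testes DNA and 0.03% Triton X-100. Detection was by Alexa488 anti-GST antibody and scanning at 488 nm.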

First: TACATATATAAAAAAACACACACATATATATATATA [CACACA_site8315]
Second: TGTATAATAAGGAAGAGTACAAGTAAATACACACAT [XGTACX_site2084]
The “gcPBM binding intensity (ln)” value of the first is lower: 9.92 ± 0.31 for the first, 11.3 ± 0.67 for the second.

“TATATATATAACATTGTACACACAAAGAAATAATAT [CACACA_site8998]” and “ATCGGTATATTATTACATGAATAAACTTACACACAC [TGCATGCA_negctrl_site21]” are within error of each other in “gcPBM binding intensity (ln)” value: 11.3 ± 0.82 for the first, 10.8 ± 0.7 for the second.

First: TTGTATTAATAATTTTTTATATTATAGTTTATAATA [GTGCAC_negctrl_site130]
Second: TTTTTTCTTCGTGTATTAAGTCACAATAGGAAAAAA [GTGCAC_negctrl_site644]
The “gcPBM binding intensity (ln)” value of the first is lower: 9.77 ± 0.042 for the first, 10.3 ± 0.4 for the second.

Going from “AAAAAAAAAGAATGTGAACACACACCGTGAATATAA [CACACA_site8342]” to “TATATATAAAATGTATGTACATATTTATTTATATAG [XGTACX_site657]”, the “gcPBM binding intensity (ln)” value rises from 10.03 ± 0.057 to 11.2 ± 0.77.

“AAGTGAAATAAAATATGTACATATATGTATATATAA [XGTACX_site4473]” and “CAAAATTATCAGAATCGTACATTTTTAACATATAAT [XGTACX_site7909]” are within error of each other in “gcPBM binding intensity (ln)” value: 11.2 ± 0.65 for the first, 10.8 ± 0.58 for the second.

“AAAACTATATTAATGTGTACACATCAAAATATTAAT [XGTACX_site6767]” and “TAATATATTAAAAATAGTACATAAGAAAAATAAGTA [XGTACX_site7957]” are within error of each other in “gcPBM binding intensity (ln)” value: 11.6 ± 0.84 for the first, 11.3 ± 0.86 for the second.

Going from “TTACAAAACACTTATACACACATATATATATATATA [CACACA_site2716]” to “TATATATATTATATATGTACATATTGTATATTTTTG [XGTACX_site4564]”, the “gcPBM binding intensity (ln)” value rises from 10.1 ± 0.26 to 11.1 ± 0.64.

“ATATTTATTTTAATTTTTCTATATAAACTATTATGA [CACACA_negctrl_site739]” and “AGGAAGGAAATAAATCAACACACATATATTATATAT [CACACA_site8678]” are within error of each other in “gcPBM binding intensity (ln)” value: 9.79 ± 0.24 for the first, 9.71 ± 0.19 for the second.

Going from “TTTCTAAGAAAAAAAAAAAAAAAAAAAAAGATACAA [GTGCAC_negctrl_site525]” to “AAGGAGCCTATGAACACACACATGTACAGATATTAA [CACACA_site6107]”, the “gcPBM binding intensity (ln)” value rises from 9.69 ± 0.2 to 11.1 ± 0.52.

“ATTATAAATATCAGTGCACACATTTCTACGCAAAGT [CACACA_site4420]” and “TATGTAAAATGTGTTTGTACTTATTTATTATATAAA [XGTACX_site2816]” are within error of each other in “gcPBM binding intensity (ln)” value: 10.4 ± 0.24 for the first, 11.3 ± 0.96 for the second.

Going from “AAGAACATATTATATACATGCATAATTCGATAGATT [TGCATGCA_site882]” to “AAAATTAGATTATGCACACACACTTAAAAATAATAA [CACACA_site1975]”, the “gcPBM binding intensity (ln)” value rises from 9.73 ± 0.071 to 10.2 ± 0.18.

“ATAATACCCATTATCTTACAACAAAATGCAAACAAA [CACACA_negctrl_site1037]” and “AACATAATATCATATACACACAAAAATATTGAAATA [CACACA_site2160]” are within error of each other in “gcPBM binding intensity (ln)” value: 10.2 ± 0.24 for the first, 9.97 for the second.

“TTATATAACTTTTCTAGTACTTGTATAAATTCCTAC [XGTACX_site3685]” and “AAAAAAAAAGAAAAACGTACGTTTATTTAATATATA [XGTACX_site4018]” are within error of each other in “gcPBM binding intensity (ln)” value: 11 ± 0.38 for the first, 10.8 ± 0.4 for the second.

“TGTAGTCTGGAGAAAAGTACACAGTATCTGGTAGCT [XGTACX_site2012]” and TATATATATATATAGGTGCTATAATTTATATACACA are within error of each other in “gcPBM binding intensity (ln)” value: 11.5 ± 1 for the first, 10.1 ± 0.52 for the second.

First: TTTTTTTTTCTGAATTTATAATTCAAAAATATATAT [CACACA_negctrl_site300]
Second: TTAAAATATGTAGCTACACACACATAAACAAAATAA [CACACA_site8244]
The “gcPBM binding intensity (ln)” value of the first is lower: 9.7 ± 0.057 for the first, 10.2 ± 0.14 for the second.

Going from “TAATTATAATAATAACGTACATATATAAAATGGTGA [XGTACX_site8434]” to “GTTTTTTTATAAAATTTTTATATAATTCTTTTATAA [CACACA_negctrl_site1605]”, the “gcPBM binding intensity (ln)” value falls from 11.3 ± 0.83 to 9.67 ± 0.042.

“AAAAAAAAAAAAAACACACATACACGCCCACCCATA [CACACA_site3391]” and “TTTTATTTTTTCTATACATGCATGTCCAATTTTCTT [TGCATGCA_site304]” are within error of each other in “gcPBM binding intensity (ln)” value: 10.9 ± 0.44 for the first, 10.4 ± 0.31 for the second.

First: TTATGGTATAAAAAAATACACACTTATATATATTCT [CACACA_site488]
Second: AATAAAAATATTATATGTACATATTTTAATATATAT [XGTACX_site1259]
The “gcPBM binding intensity (ln)” value of the first is lower: 9.935 ± 0.007 for the first, 11.2 ± 0.75 for the second.

Compared with “TAATAATAAAAAATACGTACATATTATTTATATATG [XGTACX_site853]”, “CATTTTATTCTATATGCATGTTAAAAAATGTGTTGA [TGCATGCA_site128]” is lower in “gcPBM binding intensity (ln)” value: 11.4 ± 0.76 for the first, 10 ± 0.2 for the second.

Going from “ATATATAAGAACATATATATTGGAAATATTGAATTT [XGTACX_negctrl_site121]” to “TTTGCAACATATAAAAGTACAAATAATATATTTATT [XGTACX_site890]”, the “gcPBM binding intensity (ln)” value rises from 9.66 ± 0.18 to 11 ± 0.71.

First: TTTATTATATGCACACGTACATATAATATATATATA [XGTACX_site4108]
Second: AGCAGTTTTTTTTTTTTTTTTTTTTTTATTAAAAGC [XGTACX_negctrl_site392]
The “gcPBM binding intensity (ln)” value of the first is higher: 11.2 ± 0.92 for the first, 9.8 ± 0.13 for the second.

Going from “AACTGTAATTTTATACGTACATAAATAATATTATAT [XGTACX_site4277]” to “ATAATAAATCATCATATTACATTTATCTTTGTTGGA [CACACA_negctrl_site849]”, the “gcPBM binding intensity (ln)” value falls from 11.7 ± 0.93 to 9.56 ± 0.19.

“TACTTATTTTTATAGCATTTCACGGAGGTAGTAATA [CACACA_negctrl_site468]” and “CAATAAATAATAAATACATGCAAGTATGAAGATATA [TGCATGCA_site859]” are within error of each other in “gcPBM binding intensity (ln)” value: 10 ± 0.13 for the first, 9.71 ± 0.25 for the second.

Going from “TGTTTGATGGTACACGTACACACCTTGCAAATATTT [CACACA_site888]” to “AATATAAAATAGAAAAATGAAAAAAAAAAAAAGGGT [CACACA_negctrl_site1263]”, the “gcPBM binding intensity (ln)” value falls from 11.8 ± 1.2 to 10.2 ± 0.31.

Compared with “TATATATATTTTAACACACACATATATATATTTATA [CACACA_site2765]”, “AAGTATAAAATATTTTGTACTTAAAAAATTATATGG [XGTACX_site2180]” is higher in “gcPBM binding intensity (ln)” value: 9.835 ± 0.007 for the first, 11.2 ± 0.9 for the second.

“AATAAGAATTAAAAATGTACAAAAAAATGTATTTAT [XGTACX_site8005]” and “AGTGGGATTTTTAATTGTACATAAATAATATCATAA [XGTACX_site4163]” are within error of each other in “gcPBM binding intensity (ln)” value: 10.9 ± 0.38 for the first, 11.1 ± 0.69 for the second.

“CATGTTATATATATATGTACTAAAAATATAATATAA [XGTACX_site1978]” and “TTTTTTTTTTTTGGTAGTACATAAATATTTTATGGA [XGTACX_site6851]” are within error of each other in “gcPBM binding intensity (ln)” value: 11 ± 0.6 for the first, 12 ± 1.7 for the second.

Going from ACGTTGCGACGCAAGGTGCTTATTTTCTTATAAATA to “AAAAAAAAAAAGATAAATACAAGTTACACAAAAAAA [GTGCAC_negctrl_site664]”, the “gcPBM binding intensity (ln)” value rises from 9.765 ± 0.035 to 9.9 ± 0.057.
